± gives the standard error. Variants at the background level are over-represented here.
B1: glmS ribozyme (parent)
chain: AUAAAAGCGCCAGAACUACAGAAAUGUAGUUGACGAGGAGGAGGUUUAUCGAAUUUUCGGCGGAUGCCUCCAAA

How the values were obtained:
Settings in all cases: with glucosamine-6-phosphate
glucosamine-6-phosphate [1] = variants of: B1; test: self-cleavage kobs at 40 uM GlcN6P; higher = faster cleavage; RNA array
Procedure, shortened: (§1)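 Weighted Michaelis–Menten fits across concentrations supplied kcat and KM, based on kobs from one- or two-exponential decay fits to normalised per-tile medians. The data came from barcoded ribozyme variants transcribed in situ by E. coli RNA polymerase on sequenced MiSeq chips and tracked at 37 °C by a hybridised Cy3 probe. Glucosamine-6-phosphate (40 μM to 10 mM) in HEPES/KCl/Mg(OAc)2 buffer was flowed in.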

glucosamine-6-phosphate [2] = variants of: B1; test: self-cleavage kobs at 640 uM GlcN6P; higher = faster cleavage; RNA array
Procedure, shortened: as §1

glucosamine-6-phosphate [3] = variants of: B1; test: self-cleavage kobs at 2500 uM GlcN6P; higher = faster cleavage; RNA array
Procedure, shortened: as §1

glucosamine-6-phosphate [4] = variants of: B1; test: self-cleavage kobs at 10000 uM GlcN6P; higher = faster cleavage; RNA array
Procedure, shortened: as §1

glucosamine-6-phosphate [5] = variants of: B1; test: self-cleavage kobs at 160 uM GlcN6P; higher = faster cleavage; RNA array
Procedure, shortened: as §1

Variant | self-cleavage kobs at 40 uM GlcN6P (glucosamine-6-phosphate [1]) | self-cleavage kobs at 640 uM GlcN6P (glucosamine-6-phosphate [2]) | self-cleavage kobs at 2500 uM GlcN6P (glucosamine-6-phosphate [3]) | self-cleavage kobs at 10000 uM GlcN6P (glucosamine-6-phosphate [4]) | self-cleavage kobs at 160 uM GlcN6P (glucosamine-6-phosphate [5])
G44A G59A C61U | < 1e-05 s⁻¹ | < 1e-05 s⁻¹ | < 1e-05 s⁻¹ | < 1e-05 s⁻¹ | –
G38C C67U | < 1e-05 s⁻¹ | – | < 1e-05 s⁻¹ | < 1e-05 s⁻¹ | –
C50U A52U | < 1e-05 s⁻¹ | < 1e-05 s⁻¹ | < 1e-05 s⁻¹ | < 1e-05 s⁻¹ | < 1e-05 s⁻¹
G51A G59C | < 1e-05 s⁻¹ | < 1e-05 s⁻¹ | < 1e-05 s⁻¹ | – | < 1e-05 s⁻¹
G41A G43A | < 1e-05 s⁻¹ | < 1e-05 s⁻¹ | < 1e-05 s⁻¹ | < 1e-05 s⁻¹ | –
G41C U49C | < 1e-05 s⁻¹ | < 1e-05 s⁻¹ | < 1e-05 s⁻¹ | – | < 1e-05 s⁻¹
G7U G35U A53G | – | < 1e-05 s⁻¹ | – | – | –
A6U C8U G41C | – | < 1e-05 s⁻¹ | < 1e-05 s⁻¹ | – | < 1e-05 s⁻¹
G7A C61A C68U | – | < 1e-05 s⁻¹ | – | – | –
A6G A33U C68A | – | < 1e-05 s⁻¹ | < 1e-05 s⁻¹ | < 1e-05 s⁻¹ | < 1e-05 s⁻¹
A6U A12G G59C C67A | – | < 1e-05 s⁻¹ | – | – | –
C58G G63U | < 1e-05 s⁻¹ | – | – | – | –
A6G G59C C61G | – | < 1e-05 s⁻¹ | < 1e-05 s⁻¹ | – | –
G38C U46C | < 1e-05 s⁻¹ | < 1e-05 s⁻¹ | < 1e-05 s⁻¹ | < 1e-05 s⁻¹ | –
A42C G62U C70G | < 1e-05 s⁻¹ | – | – | < 1e-05 s⁻¹ | –
G41U C50U C70G | < 1e-05 s⁻¹ | – | – | – | –
G7U U65G | – | < 1e-05 s⁻¹ | < 1e-05 s⁻¹ | < 1e-05 s⁻¹ | –
U56A G59U | < 1e-05 s⁻¹ | – | – | – | –
G43A U57C | < 1e-05 s⁻¹ | < 1e-05 s⁻¹ | – | < 1e-05 s⁻¹ | < 1e-05 s⁻¹
G44C U49C | < 1e-05 s⁻¹ | – | – | – | –
U47C C61A | < 1e-05 s⁻¹ | – | < 1e-05 s⁻¹ | < 1e-05 s⁻¹ | < 1e-05 s⁻¹
U54G U56C | 6.58e-05 ± 1.3e-05 s⁻¹ | 0.000986 ± 0.00024 s⁻¹ | 0.00123 ± 0.00029 s⁻¹ | 0.00518 ± 0.0011 s⁻¹ | 0.000146 ± 2.8e-05 s⁻¹
A64G G66A | 0.000837 ± 9.3e-05 s⁻¹ | 0.00554 ± 0.0008 s⁻¹ | 0.0124 ± 0.0025 s⁻¹ | 0.0215 ± 0.0052 s⁻¹ | 0.00197 ± 0.00028 s⁻¹
A6G G32A G38A U46C G51A | – | < 1e-05 s⁻¹ | – | – | –

Variant | self-cleavage kobs at 40 uM GlcN6P (glucosamine-6-phosphate [1]) | self-cleavage kobs at 640 uM GlcN6P (glucosamine-6-phosphate [2]) | self-cleavage kobs at 2500 uM GlcN6P (glucosamine-6-phosphate [3]) | self-cleavage kobs at 10000 uM GlcN6P (glucosamine-6-phosphate [4]) | self-cleavage kobs at 160 uM GlcN6P (glucosamine-6-phosphate [5])
A6U A14C U45C C70U | – | < 1e-05 s⁻¹ | < 1e-05 s⁻¹ | – | < 1e-05 s⁻¹
U55C U57A C68A | < 1e-05 s⁻¹ | – | – | – | –
A6C G9C C11G U31C G43C C70A | – | < 1e-05 s⁻¹ | < 1e-05 s⁻¹ | – | –
U47A C67U | 0.00025 ± 3.1e-05 s⁻¹ | 0.003 ± 0.00062 s⁻¹ | 0.00497 ± 0.0016 s⁻¹ | 0.00638 ± 0.00092 s⁻¹ | 0.000428 ± 7.1e-05 s⁻¹
U49G A52C | < 1e-05 s⁻¹ | < 1e-05 s⁻¹ | – | < 1e-05 s⁻¹ | < 1e-05 s⁻¹
A6C C11A A33U A36U | – | < 1e-05 s⁻¹ | < 1e-05 s⁻¹ | – | –
A6C G7U G43U | – | < 1e-05 s⁻¹ | < 1e-05 s⁻¹ | – | –
A6C G35U G40C G59A | – | < 1e-05 s⁻¹ | – | – | –
G7U A14U G44U | – | < 1e-05 s⁻¹ | – | – | –
A39U G66C | 5.39e-05 ± 1.3e-05 s⁻¹ | – | – | – | –
C67G U69C | 5.09e-05 ± 1.4e-05 s⁻¹ | 0.000506 ± 9.2e-05 s⁻¹ | 0.00077 ± 0.00014 s⁻¹ | 0.00127 ± 0.0002 s⁻¹ | 0.000179 ± 3.4e-05 s⁻¹
A6U U31G U56C C61G | – | < 1e-05 s⁻¹ | < 1e-05 s⁻¹ | – | < 1e-05 s⁻¹
A53C C70U | 0.000105 ± 1.2e-05 s⁻¹ | 0.000893 ± 0.00013 s⁻¹ | 0.00403 ± 0.0007 s⁻¹ | 0.00392 ± 0.00044 s⁻¹ | 0.000315 ± 2.6e-05 s⁻¹
A53C C70A | < 1e-05 s⁻¹ | – | 6.85e-05 ± 1.7e-05 s⁻¹ | 5.03e-05 ± 1.1e-05 s⁻¹ | –
U49A A53U C61U C71U | < 1e-05 s⁻¹ | – | – | < 1e-05 s⁻¹ | –
A6C A12C A33U C58A | – | < 1e-05 s⁻¹ | – | – | –
G51C A52U | < 1e-05 s⁻¹ | – | – | – | –
G51C C71G | < 1e-05 s⁻¹ | – | – | – | –
A6C A12U G41A | – | < 1e-05 s⁻¹ | < 1e-05 s⁻¹ | – | < 1e-05 s⁻¹
A6U C34A G63C | – | < 1e-05 s⁻¹ | < 1e-05 s⁻¹ | – | < 1e-05 s⁻¹
G7U G9U U31A G37A A52C C67U U69C | – | < 1e-05 s⁻¹ | – | – | –
G40C G63A C67A | < 1e-05 s⁻¹ | – | – | < 1e-05 s⁻¹ | –
G41A A42C A48U C50G | < 1e-05 s⁻¹ | – | – | < 1e-05 s⁻¹ | –
